# According to PubChem BioAssay (Tox21):
# “And” between values parts separate entries of the source, which are not always exact repeats. Identical values can stand only once. The inconclusive results got no clear call from the source; some entries with a clear call stand among them for comparison. For some of these results: Where the call is inconclusive, the potency comes from a doubtful curve fit. A structure can be active in one record and inactive in another. The source made the active and inactive calls. Unless noted, the call rests on the fitted dose curve; in most records, active means well fitted curve in the direction sought with a large enough effect in the repeat runs; inconclusive means weak or mixed curves; inactive means no such curve, though single readings can be large; an effect the other way counts as inactive or inconclusive.
# What was measured:
# [1] = biological target: Nuclear receptor subfamily 1 group I member 3 (Homo sapiens) (UniProt Q14994); assay: qHTS assay to identify small molecule antagonists of the constitutive androstane receptor (CAR) signaling pathway (AID 1224838);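 further: HepG2 cells stably expressing hCAR with CYP2B6 luciferase reporter stimulated by CITCO; nearly all actives have a fitted effect of over 40% in size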
# Sequence of UniProt Q14994 (Q14994 whole entry, looked up): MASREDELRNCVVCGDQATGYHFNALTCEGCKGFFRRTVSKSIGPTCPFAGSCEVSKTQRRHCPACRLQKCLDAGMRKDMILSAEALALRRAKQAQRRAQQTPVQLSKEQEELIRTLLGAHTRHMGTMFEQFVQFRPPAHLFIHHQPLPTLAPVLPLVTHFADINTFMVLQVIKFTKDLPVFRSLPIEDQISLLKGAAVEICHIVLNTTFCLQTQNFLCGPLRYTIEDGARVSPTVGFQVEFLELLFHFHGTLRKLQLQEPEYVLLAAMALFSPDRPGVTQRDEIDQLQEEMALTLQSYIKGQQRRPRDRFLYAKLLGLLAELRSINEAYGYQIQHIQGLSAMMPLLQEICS
# How it was run: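 Antagonist mode used CITCO at a final 50 nM to activate CAR in human hepatoma HepG2 cells carrying stable hCAR and a 2.2 kb CYP2B6 promoter-luciferase construct. Compounds were tested at 15 concentrations over 24 h, with luminescence as the end point.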
# [2] = qHTS assay to identify small molecule agonists of the hypoxia (HIF-1) signaling pathway - cell viability counter screen (AID 1224844; calls by dose curve; further: nearly all actives have a fitted effect of over 50% in size)
# How it was run: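 Cytotoxicity was measured in parallel with the HRE-driven beta-lactamase readout: after 17 hrs of compound exposure at 37C, HRE-bla ME-180 cells received CellTiter-Glo and luminescence was recorded 30 min later.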
# [3] = qHTS assay to identify small molecule agonists of the hypoxia (HIF-1) signaling pathway (AID 1224846; active means well fitted activation curve with a large enough effect in the signal ratio in the repeat runs, not every such curve was filed as active; inconclusive means weak or mixed curves; the % refers to the signal ratio); settings: HRE-bla ME-180 cells, beta-lactamase ratio, 17 h; activation: at 76.8 µM (top of the series) unless noted
# How it was run: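 Compounds from the Tox21 10K library, dissolved in DMSO, are tested for induction of a hypoxia response element–controlled beta-lactamase reporter in ME-180 cells. Exposure lasts 17 hrs at 37C after a 5 hr settling period, followed by CCF4-AM FRET substrate.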
# [4] = A CellTox Green Cytotoxicity Assay to monitor cytotoxicity in HEK293 cells - 40 hour (AID 1224871); further: nearly all actives have a fitted effect of over 45% in size
# How it was run: (§1)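 Cells (HEK293, 600/well) and dye reagent are dispensed together. After 5 h at 37 C, 23 nL compound is pinned in. Plates stay at 37 C for 40 h with fluorescence read at 0h, 8h, 16h, 24h, 32h and 40h.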
# [5] = biological target: Thyrotropin receptor (Homo sapiens) (UniProt P16473); assay: qHTS assay to identify small molecule agonists of the thyroid stimulating hormone receptor (TSHR) signaling pathway (AID 1224843; calls by dose curve; further: nearly all actives have a fitted effect of over 45% in size; on activation: on the % scale 0 is the no-effect control and ±100 the full control effect); settings: TSHR-HEK293 cells, cAMP HTRF, agonist mode, 30 min; activation: at 92.4 µM (top of the series) unless noted
# Sequence of UniProt P16473 (P16473 whole entry, looked up): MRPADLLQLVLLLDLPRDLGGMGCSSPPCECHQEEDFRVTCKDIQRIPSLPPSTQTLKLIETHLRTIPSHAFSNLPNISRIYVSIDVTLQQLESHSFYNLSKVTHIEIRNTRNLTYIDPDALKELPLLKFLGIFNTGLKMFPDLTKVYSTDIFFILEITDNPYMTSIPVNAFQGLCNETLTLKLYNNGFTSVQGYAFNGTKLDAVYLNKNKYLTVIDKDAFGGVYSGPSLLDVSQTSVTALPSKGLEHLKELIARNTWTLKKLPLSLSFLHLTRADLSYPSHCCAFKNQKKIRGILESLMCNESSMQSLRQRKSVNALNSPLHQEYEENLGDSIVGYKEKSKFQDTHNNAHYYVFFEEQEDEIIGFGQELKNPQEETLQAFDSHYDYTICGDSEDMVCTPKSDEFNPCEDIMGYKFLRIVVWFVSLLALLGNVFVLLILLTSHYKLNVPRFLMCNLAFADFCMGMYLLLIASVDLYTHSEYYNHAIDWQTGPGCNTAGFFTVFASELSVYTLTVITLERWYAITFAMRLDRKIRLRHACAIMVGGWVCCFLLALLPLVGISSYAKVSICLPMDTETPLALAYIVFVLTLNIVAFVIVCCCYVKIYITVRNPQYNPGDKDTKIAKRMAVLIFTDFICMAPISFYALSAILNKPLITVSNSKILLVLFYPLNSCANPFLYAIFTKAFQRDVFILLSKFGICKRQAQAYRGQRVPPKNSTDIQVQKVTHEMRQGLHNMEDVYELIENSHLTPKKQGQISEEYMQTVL
# How it was run: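 Agonist-mode screen: TSHR HEK293 cells received test chemicals for half an hour at room temperature, then HTRF cAMP detection reagents for one hour prior to fluorescence measurement. Each chemical ran as a 15-concentration series, triplicated.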
# [6] = qHTS assay to identify small molecule agonists of H2AX - cell viability counter screen (AID 1224847; calls by dose curve; further: nearly all actives have a fitted effect of over 30% in size)
# How it was run: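 Cytotoxicity counter screen in wild-type CHO-K1 cells: a 3 hr compound treatment at 37C across 15 concentrations, followed by CellTiter-Glo luminescence to gauge viable cells.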
# [7] = qHTS RealTime-Glo MT Cell Viability Assay in HEK293 cells - 32 hour (AID 1224868); further: nearly all actives have a fitted effect of over 50% in size
# How it was run: (§2)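 Luminescence generated by NanoLuc from substrate produced by living HEK293 cells served as the viability signal. Each value reflects the reading at its stated time point during continuous 40 h compound exposure at 37 C.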
# [8] = qHTS RealTime-Glo MT Cell Viability Assay in HEK293 cells - 16 hour (AID 1224872); further: nearly all actives have a fitted effect of over 50% in size
# How it was run: as §2
# [9] = qHTS RealTime-Glo MT Cell Viability Assay in HEK293 cells - 40 hour (AID 1224874); settings: RealTime-Glo luminescence; max response: stronger effect = lower value; further: nearly all actives have a fitted effect of over 50% in size
# How it was run: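 Real-time viability in HEK293: signal arises when living cells convert a prosubstrate for NanoLuc in the medium, so luminescence tracks viable cell number. Compound (23 nL, DMSO) added 5 h post-seeding; kinetic reads at 0–40 h, 37 C.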
# [10] = biological target: Nuclear receptor subfamily 1 group I member 3 (Homo sapiens) (UniProt Q14994); assay: qHTS assay to identify small molecule agonists of the constitutive androstane receptor (CAR) signaling pathway (AID 1224839); further: nearly all actives have a fitted effect of over 15% in size
# How it was run: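 Cells were plated and incubated 4 hrs, then dosed with compounds at 15 concentrations. PK11195 was added to 0.75 uM final. After 24 hrs at 37 C, luciferase luminescence was measured.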
# [11] = qHTS assay to identify small molecule antagonists of the estrogen related receptor signaling pathway with the pleiotropic PPARgamma coactivator (PGC) from Tox21 10K library - cell viability counter screen (AID 1224840; active means well fitted cell-killing curve with a large enough effect in the repeat runs, not every such curve was filed as active; inconclusive means weak or mixed curves, or effect the other way; inactive means no such curve, though single readings can be large or run the other way; further: nearly all actives have a fitted effect of over 40% in size)
# How it was run: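 Multiplexed viability counter screen in the PGC/ERR cell line: cells treated with DMSO-dissolved compounds for 17.5 hours at 37 C, then viability measured as CellTiter-Fluor fluorescence.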
# [12] = qHTS assay to identify small molecule agonists of H2AX (AID 1224845; active means well fitted activation curve with a large enough effect in the signal ratio in the repeat runs, not every such curve was filed as active; inconclusive means weak or mixed curves; the % refers to the signal ratio; on activation (H2AX phosphorylation): on the % scale 0 is the no-effect control and ±100 the full control effect); settings: CHO-K1 phospho-H2AX Ser139 HTRF, 3 h; activation (H2AX phosphorylation): at 154 µM (top of the series)
# How it was run: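 Wild-type CHO-K1 cells, plated overnight, exposed 3hr at 37C to 15 concentrations (0.76% DMSO final). Lysed, then HTRF anti-pH2AX (S139) cryptate and anti-H2AX-d2 antibodies, 24 hr room temperature; 665/620 nm emission read.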
# [13] = qHTS RealTime-Glo MT Cell Viability Assay in HepG2 cells - 40 hour (AID 1224870); further: nearly all actives have a fitted effect of over 50% in size
# How it was run: (§3)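 HepG2 cells (600/well) mixed with RealTime-Glo MT reagent, settled 5 h at 37 C/5% CO2 before compound addition. Nonlytic NanoLuc luminescence from viable-cell prosubstrate reduction read repeatedly during 40 h treatment at 37 C.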
# [14] = qHTS RealTime-Glo MT Cell Viability Assay in HepG2 cells - 8 hour (AID 1224873); further: nearly all actives have a fitted effect of over 55% in size
# How it was run: as §3
# [15] = A CellTox Green Cytotoxicity Assay to monitor cytotoxicity in HEK293 cells - 0 hour (AID 1224869); further: nearly all actives have a fitted effect of over 50% in size
# How it was run: as §1
# [16] = qHTS assay to identify small molecule antagonists of the estrogen related receptor signaling pathway with the pleiotropic PPARgamma coactivator (PGC) from Tox21 10K library (AID 1224841; call rule not given here)
# How it was run: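 Steps: plate 2,000 PGC/ERR cells per well; incubate 6 h at 37 C with 5% CO2; transfer compounds from DMSO stocks by pin tool; incubate 18 h at 37 C; add One-Glo; measure luminescence 30 min later.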
# [17] = qHTS RealTime-Glo MT Cell Viability Assay in HepG2 cells - 24 hour (AID 1224867); further: nearly all actives have a fitted effect of over 50% in size
# How it was run: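 Tox21 10K library screened in qHTS format on HepG2 cells carrying RealTime-Glo reagents. Compounds were added after a 5 h preincubation, and the luminescent signal from continuous culture was measured repeatedly during 40 h treatment.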
# Potency means the concentration at half of the fitted maximal effect; tags describe the fitted curve by direction and shape or compound fluorescence and quenching.
smiles,measurement,setting,value
Clc1cccc(Cl)c1,Potency,[1],"inconclusive: 68.1 µM [inhibitor, single point]"
same,Potency,[2],"inconclusive: 54.5 µM [cytotoxic, single point]"
same,Potency,[3],inconclusive: 54.5 µM [single point]
same,Potency,[4],inactive
CCC(C)c1cc([N+](=O)[O-])cc([N+](=O)[O-])c1O (stereo not given),Potency,[1],"inconclusive: 27.3 µM [inhibitor, single point]"
same,activation,[5],inconclusive: 12.7%
same,Potency,[3],"inconclusive: 9.77 µM [falling, full curve]"
same,Potency,[6],inactive and active: 28.4 µM
same,Potency,[7],"inconclusive: 24.5 µM [cytotoxic, full curve]"
same,Potency,[8],"inconclusive: 34.7 µM [cytotoxic, partial curve]"
same,Potency,[9],"inconclusive: 21.9 µM [cytotoxic, full curve]"
Oc1ccc(Cl)cc1Cc1ccccc1,Potency,[10],"inconclusive: 54.5 µM [activator, partial curve]"
same,Potency,[11],inconclusive: 31 µM [cytotoxic]
same,Potency,[5],inconclusive: 13.9 µM [inhibitor]
same,Potency,[2],inconclusive: 54.9 µM [cytotoxic] and active: 49.6 µM
same,Potency,[12],inactive
same,Potency,[6],"active: 89.8 µM and active: 81 µM and inconclusive: 55.2 µM [cytotoxic, partial curve]"
same,Potency,[7],"inconclusive: 21.3 µM [cytotoxic, partial curve]"
same,Potency,[13],"inconclusive: 49.6 µM [phenotype inactive, partial curve, poor fit]"
same,Potency,[4],"inconclusive: 12.4 µM [activator, full curve, poor fit]"
same,Potency,[8],"active: 21.9 µM and active: 17.6 µM and inconclusive: 21.3 µM [cytotoxic, partial curve]"
same,Potency,[14],"inconclusive: 43.6 µM [falling, partial curve]"
same,Potency,[9],"inconclusive: 21.3 µM [cytotoxic, partial curve]"
CCC(C)(C)c1ccc(O)c(C(C)(C)CC)c1,Potency,[1],"inconclusive: 68.6 µM [inhibitor, single point]"
same,Potency,[5],active: 13.5 µM and active: 24.3 µM
same,Potency,[2],active: 19.3 µM and active: 24.5 µM
same,Potency,[12],active: 56 µM and active: 35.7 µM
same,Potency,[15],"inconclusive: 54.4 µM [activator, partial curve, poor fit]"
same,Potency,[13],"inconclusive: 54.9 µM [falling, single point]"
same,Potency,[8],"inconclusive: 12.3 µM [cytotoxic, full curve]"
same,Potency,[9],active: 43.2 µM
CN1CCC(O)(c2ccc(F)cc2)C(C(=O)c2ccc(F)cc2)C1 (stereo not given),Potency,[1],"inconclusive: 33.5 µM [inhibitor, single point]"
same,Potency,[13],"inconclusive: 23.9 µM [falling, single point]"
same,Potency,[4],"inconclusive: 26.8 µM [activator, single point]"
Oc1cccc2cccnc12,Potency,[1],"active: 1.38 µM and inconclusive: 14.5 µM [inhibitor, full curve] and active: 770 nM"
same,Potency,[2],"inconclusive: 9.82 µM [cytotoxic, full curve, poor fit] and inconclusive: 14.7 µM [cytotoxic, partial curve, poor fit] and active: 1.1 µM"
same,Potency,[12],active: 1.43 µM and active: 3.02 µM and inactive
same,Potency,[6],"inconclusive: 90.3 µM [cytotoxic, single point] and inconclusive: 214 nM [cytotoxic, partial curve, poor fit] and inconclusive: 3.57 µM"
same,Potency,[7],"inconclusive: 13.9 µM [cytotoxic, full curve]"
same,Potency,[8],"inconclusive: 11 µM [cytotoxic, full curve, poor fit] and inconclusive: 5.49 µM [cytotoxic, full curve]"
same,Potency,[14],"inconclusive: 3.09 µM [phenotype inactive, full curve]"
Oc1cc(Cl)ccc1Oc1ccc(Cl)cc1Cl,Potency,[10],"inconclusive: 24.9 µM [activator, partial curve, poor fit]"
same,Potency,[11],"inconclusive: 29.8 µM [cytotoxic, partial curve]"
same,Potency,[16],"inconclusive: 26.6 µM [falling, single point]"
same,Potency,[2],active: 50.1 µM
same,Potency,[12],"inconclusive: 51.7 µM [fluorescent, single point]"
same,Potency,[6],active: 51.7 µM and active: 43.8 µM
same,Potency,[17],active: 42.2 µM [cytotoxic] and active: 23.9 µM
same,Potency,[7],"inconclusive: 26.8 µM [cytotoxic, single point]"
same,Potency,[15],"inconclusive: 50.1 µM [activator, partial curve, poor fit]"
same,Potency,[13],"inconclusive: 23.9 µM [falling, single point]"
same,Potency,[4],"inconclusive: 26.8 µM [activator, single point]"
same,Potency,[8],active: 22.4 µM and active: 23.9 µM
same,Potency,[14],active: 22.4 µM and active: 23.9 µM
same,Potency,[9],"inconclusive: 26.8 µM [cytotoxic, single point]"
